# Experimental data as given in the supplement of paper PMC12217912.
# The list shows a part of the results. The full chains were built here from the parent and the listed change. Inactive controls read about 0.05.
# B1: TEV protease; numbered along this chain (parent)
# chain: MGESLFKGPRDYNPISSSICHLTNESDGHTTSLYGIGFGPFIITNKHLFRRNNGTLVVQSLHGVFKVKDTTTLQQHLVDGRDMIIIRMPKDFPPFPQKLKFREPQREERICLVTTNFQTKSMSSMVSDTSCTFPSGDGIFWKHWIQTKDGQCGSPLVSTRDGFIVGIHSASNFTNTNNYFTSVPKNFMELLTNQEAQQWVSGWRLNADSVLWGGHKVFMVKPEEPFQPVKEATQL
# Variants of: B1
# Test: raw area under fraction-flipped curve 0-4 h after induction (AUC4h, not background-subtracted), DNA-recorder readout of cleavage of the substrate (dimensionless); higher = more cleavage of the substrate by the protease variant
# Conditions: temperature: 34 °C; time window: 0-4 h after rhamnose induction
# Experimental: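 In vivo DNA recorder in E. coli TOP10(DE3) ΔrhaA at 34 °C. Each TEVp single-site mutant (parent TEVp 0) is paired with a single-site variant of the 7-mer TEVs (canonical ENLYFQ|S). The substrate sits between flexible linkers in a Bxb1-sfGFP-TEVs-SsrA fusion, so cleavage stabilises Bxb1 and speeds flipping of a recombination array, read by NGS. The value is the raw area under the fraction-flipped curve over 0-4 h after rhamnose induction (AUC4h), with ≥20 reads per time point. It is not background-subtracted; inactive controls average about 0.047.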
# 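Further: Bxb1 expression induced with 0.2% (w/v) L-rhamnose at OD600 near 0.5, cultures sampled hourly, flipped fraction per protease–substrate barcode pair counted by paired-end Illumina sequencing.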
Variant,area with substrate ENLYFQA,area with substrate ENLYFQC,area with substrate ENLYFQD,area with substrate ENLYFQG,area with substrate ENLYFQK,area with substrate ENLYFQL,area with substrate ENLYFQM,area with substrate ENLYFQN,area with substrate ENLYFQR,area with substrate ENLYFQS,area with substrate ENLYFQT,area with substrate ENLYFQW,area with substrate ENLYFQY,area with substrate ENLYFQE,area with substrate ENLYFQF,area with substrate ENLYFQH,area with substrate ENLYFQI,area with substrate ENLYFQP,area with substrate ENLYFQQ,area with substrate ENLYFQV
MGESLFKGPRDYNPISSSICHLTNESDGHTTSLYGIGFGPFIITNKHLFRRNNGTLVVQSLHGVFKVKDTTTLQQHLVDGRDMIIIRMPKDFPPFPQKLKFREPQREERICLVTTNFQTKSMSSMVSDTSCTFPDGDGIFWKHWIQTKDGQCGSPLVSTRDGFIVGIHSASNFTNTNNYFTSVPKNFMELLTNQEAQQWVSGWRLNADSVLWGGHKVFMVKPEEPFQPVKEATQL [S135D],0.0817,0.106,0.0662,0.0826,0.0602,0.0457,0.0717,0.0707,0.0673,0.0975,0.0607,0.0679,0.0509,,,,,,,
MGESLFKGPRDYNPISSSICHLTNESDGHTTSLYGIGFGPFIITNKHLFRRNNGTLVVQSLHGVFKVKDTTTLQQHLVDGRDMIIIRMPKDFPPFPQKLKFREPQREERICLVTTNFQTKSMSSMVSDTSCTFPIGDGIFWKHWIQTKDGQCGSPLVSTRDGFIVGIHSASNFTNTNNYFTSVPKNFMELLTNQEAQQWVSGWRLNADSVLWGGHKVFMVKPEEPFQPVKEATQL [S135I],0.0929,0.0831,,,0.0561,0.0637,0.0508,0.0488,0.0592,0.0661,0.0595,0.0399,0.0554,0.0682,0.0507,0.062,0.0592,0.0362,0.075,0.0609
MGESLFKGPRDYNPISSSICHLTNESDGHTTSLYGIGFGPFIITNKHLFRRNNGTLVVQSLHGVFKVKDTTTLQQHLVDGRDMIIIRMPKDFPPFPQKLKFREPQREERICLVTTNFQTKSMSSMVSDTSCTFPSGDGNFWKHWIQTKDGQCGSPLVSTRDGFIVGIHSASNFTNTNNYFTSVPKNFMELLTNQEAQQWVSGWRLNADSVLWGGHKVFMVKPEEPFQPVKEATQL [I139N],0.107,0.0987,,0.0984,0.055,0.0596,,0.06,0.0626,0.105,0.0614,0.0637,0.0618,,0.0699,0.0945,0.0714,0.0551,,0.0671
MGESLFKGPRDYNPISSSICHLTNESDGHTTSLYGIGFGPFIITNKHLFRRNNGTLVVQSLHGVFKVKDTTTLQQHLVDGRDMIIIRMPKDFPPFPQKLKFREPQREERICLVTTNFQTKSMSSMVSDTSCTFPSGDGIIWKHWIQTKDGQCGSPLVSTRDGFIVGIHSASNFTNTNNYFTSVPKNFMELLTNQEAQQWVSGWRLNADSVLWGGHKVFMVKPEEPFQPVKEATQL [F140I],0.0666,0.0614,0.0599,0.068,0.0582,,0.0624,0.0692,0.0527,0.064,0.0585,0.0643,0.0383,0.0629,0.0468,0.0569,0.0511,0.052,,
MGESLFKGPRDYNPISSSICHLTNESDGHTTSLYGIGFGPFIITNKHLFRRNNGTLVVQSLHGVFKVKDTTTLQQHLVDGRDMIIIRMPKDFPPFPQKLKFREPQREERICLVTTNFQTKSMSSMVSDTSCTFPSGDGIMWKHWIQTKDGQCGSPLVSTRDGFIVGIHSASNFTNTNNYFTSVPKNFMELLTNQEAQQWVSGWRLNADSVLWGGHKVFMVKPEEPFQPVKEATQL [F140M],0.0818,,0.0187,0.11,0.0577,0.0638,0.0543,0.0569,0.062,0.0785,0.0627,0.0539,,,0.0272,,0.0328,0.0372,,
MGESLFKGPRDYNPISSSICHLTNESDGHTTSLYGIGFGPFIITNKHLFRRNNGTLVVQSLHGVFKVKDTTTLQQHLVDGRDMIIIRMPKDFPPFPQKLKFREPQREERICLVTTNFQTKSMSSMVSDTSCTFPSGDGIPWKHWIQTKDGQCGSPLVSTRDGFIVGIHSASNFTNTNNYFTSVPKNFMELLTNQEAQQWVSGWRLNADSVLWGGHKVFMVKPEEPFQPVKEATQL [F140P],0.0545,0.0577,0.0558,0.0558,0.0566,0.0553,0.0515,,0.0567,0.0623,0.0601,0.0432,0.0627,0.0575,0.0498,,,0.0471,0.0548,0.0551
MGESLFKGPRDYNPISSSICHLTNESDGHTTSLYGIGFGPFIITNKHLFRRNNGTLVVQSLHGVFKVKDTTTLQQHLVDGRDMIIIRMPKDFPPFPQKLKFREPQREERICLVTTNFQTKSMSSMVSDTSCTFPSGDGIFWKHLIQTKDGQCGSPLVSTRDGFIVGIHSASNFTNTNNYFTSVPKNFMELLTNQEAQQWVSGWRLNADSVLWGGHKVFMVKPEEPFQPVKEATQL [W144L],0.0796,0.0838,0.0702,,,0.076,,,0.0739,0.0864,,0.0777,0.0639,,,,,,,
MGESLFKGPRDYNPISSSICHLTNESDGHTTSLYGIGFGPFIITNKHLFRRNNGTLVVQSLHGVFKVKDTTTLQQHLVDGRDMIIIRMPKDFPPFPQKLKFREPQREERICLVTTNFQTKSMSSMVSDTSCTFPSGDGIFWKHQIQTKDGQCGSPLVSTRDGFIVGIHSASNFTNTNNYFTSVPKNFMELLTNQEAQQWVSGWRLNADSVLWGGHKVFMVKPEEPFQPVKEATQL [W144Q],0.086,0.0861,,0.0916,,0.0613,0.0903,,0.0555,0.0824,0.0269,0.0672,0.0572,,,,0.0586,0.0566,,
MGESLFKGPRDYNPISSSICHLTNESDGHTTSLYGIGFGPFIITNKHLFRRNNGTLVVQSLHGVFKVKDTTTLQQHLVDGRDMIIIRMPKDFPPFPQKLKFREPQREERICLVTTNFQTKSMSSMVSDTSCTFPSGDGIFWKHWCQTKDGQCGSPLVSTRDGFIVGIHSASNFTNTNNYFTSVPKNFMELLTNQEAQQWVSGWRLNADSVLWGGHKVFMVKPEEPFQPVKEATQL [I145C],0.142,,,0.113,0.0546,,0.109,0.104,0.0587,0.137,,,0.0882,,,0.125,0.0628,,,0.0688
MGESLFKGPRDYNPISSSICHLTNESDGHTTSLYGIGFGPFIITNKHLFRRNNGTLVVQSLHGVFKVKDTTTLQQHLVDGRDMIIIRMPKDFPPFPQKLKFREPQREERICLVTTNFQTKSMSSMVSDTSCTFPSGDGIFWKHWIQTMDGQCGSPLVSTRDGFIVGIHSASNFTNTNNYFTSVPKNFMELLTNQEAQQWVSGWRLNADSVLWGGHKVFMVKPEEPFQPVKEATQL [K148M],0.0823,0.103,,0.0787,0.0588,0.0869,0.0962,,0.063,0.107,0.0634,0.0534,0.0789,,,0.0882,0.0597,0.0731,,0.0676
MGESLFKGPRDYNPISSSICHLTNESDGHTTSLYGIGFGPFIITNKHLFRRNNGTLVVQSLHGVFKVKDTTTLQQHLVDGRDMIIIRMPKDFPPFPQKLKFREPQREERICLVTTNFQTKSMSSMVSDTSCTFPSGDGIFWKHWIQTNDGQCGSPLVSTRDGFIVGIHSASNFTNTNNYFTSVPKNFMELLTNQEAQQWVSGWRLNADSVLWGGHKVFMVKPEEPFQPVKEATQL [K148N],0.0808,0.0826,,0.0728,0.0555,0.0539,,0.0834,0.0399,0.0797,0.0617,0.05,0.0631,,0.0654,,0.0157,0.0639,0.0553,0.0589
MGESLFKGPRDYNPISSSICHLTNESDGHTTSLYGIGFGPFIITNKHLFRRNNGTLVVQSLHGVFKVKDTTTLQQHLVDGRDMIIIRMPKDFPPFPQKLKFREPQREERICLVTTNFQTKSMSSMVSDTSCTFPSGDGIFWKHWIQTKQGQCGSPLVSTRDGFIVGIHSASNFTNTNNYFTSVPKNFMELLTNQEAQQWVSGWRLNADSVLWGGHKVFMVKPEEPFQPVKEATQL [D149Q],0.1,0.106,,,0.0539,0.0583,0.0677,,0.0668,0.0883,,0.0506,0.0953,,,,,0.0519,,
MGESLFKGPRDYNPISSSICHLTNESDGHTTSLYGIGFGPFIITNKHLFRRNNGTLVVQSLHGVFKVKDTTTLQQHLVDGRDMIIIRMPKDFPPFPQKLKFREPQREERICLVTTNFQTKSMSSMVSDTSCTFPSGDGIFWKHWIQTKDLQCGSPLVSTRDGFIVGIHSASNFTNTNNYFTSVPKNFMELLTNQEAQQWVSGWRLNADSVLWGGHKVFMVKPEEPFQPVKEATQL [G150L],0.0528,0.0571,0.0581,0.0542,0.0578,0.0532,0.0583,0.0588,0.064,0.0589,0.0588,0.062,,0.067,,0.0641,,0.0656,,0.0468
MGESLFKGPRDYNPISSSICHLTNESDGHTTSLYGIGFGPFIITNKHLFRRNNGTLVVQSLHGVFKVKDTTTLQQHLVDGRDMIIIRMPKDFPPFPQKLKFREPQREERICLVTTNFQTKSMSSMVSDTSCTFPSGDGIFWKHWIQTKDGHCGSPLVSTRDGFIVGIHSASNFTNTNNYFTSVPKNFMELLTNQEAQQWVSGWRLNADSVLWGGHKVFMVKPEEPFQPVKEATQL [Q151H],0.0862,0.0956,,0.0987,0.0517,0.0547,,0.0662,0.0952,0.0895,,0.0577,,,,0.0798,0.0416,0.0417,,0.067
MGESLFKGPRDYNPISSSICHLTNESDGHTTSLYGIGFGPFIITNKHLFRRNNGTLVVQSLHGVFKVKDTTTLQQHLVDGRDMIIIRMPKDFPPFPQKLKFREPQREERICLVTTNFQTKSMSSMVSDTSCTFPSGDGIFWKHWIQTKDGSCGSPLVSTRDGFIVGIHSASNFTNTNNYFTSVPKNFMELLTNQEAQQWVSGWRLNADSVLWGGHKVFMVKPEEPFQPVKEATQL [Q151S],0.0955,,,,,0.0453,0.107,0.109,0.0567,0.104,0.0699,0.0563,0.0859,,,,,0.0613,0.0782,
MGESLFKGPRDYNPISSSICHLTNESDGHTTSLYGIGFGPFIITNKHLFRRNNGTLVVQSLHGVFKVKDTTTLQQHLVDGRDMIIIRMPKDFPPFPQKLKFREPQREERICLVTTNFQTKSMSSMVSDTSCTFPSGDGIFWKHWIQTKDGQCNSPLVSTRDGFIVGIHSASNFTNTNNYFTSVPKNFMELLTNQEAQQWVSGWRLNADSVLWGGHKVFMVKPEEPFQPVKEATQL [G153N],0.0536,0.0535,,,0.0515,,,0.0604,0.0635,0.0507,0.0361,,,,,,,,0.0526,0.0142
MGESLFKGPRDYNPISSSICHLTNESDGHTTSLYGIGFGPFIITNKHLFRRNNGTLVVQSLHGVFKVKDTTTLQQHLVDGRDMIIIRMPKDFPPFPQKLKFREPQREERICLVTTNFQTKSMSSMVSDTSCTFPSGDGIFWKHWIQTKDGQCYSPLVSTRDGFIVGIHSASNFTNTNNYFTSVPKNFMELLTNQEAQQWVSGWRLNADSVLWGGHKVFMVKPEEPFQPVKEATQL [G153Y],0.0489,0.0319,,,,0.0538,0.0484,0.0422,0.0435,0.0449,,,,,,,0.0243,0.0287,,
MGESLFKGPRDYNPISSSICHLTNESDGHTTSLYGIGFGPFIITNKHLFRRNNGTLVVQSLHGVFKVKDTTTLQQHLVDGRDMIIIRMPKDFPPFPQKLKFREPQREERICLVTTNFQTKSMSSMVSDTSCTFPSGDGIFWKHWIQTKDGQCGSELVSTRDGFIVGIHSASNFTNTNNYFTSVPKNFMELLTNQEAQQWVSGWRLNADSVLWGGHKVFMVKPEEPFQPVKEATQL [P155E],0.0413,0.0403,,,0.0639,0.0429,0.0582,,0.0546,0.0519,0.0506,0.0491,0.0466,0.0446,,,0.0458,0.059,,
